Data taken from the antibiotic and cytotoxicity screens of Wong et al. (2023).
The list shows a part of the results.

What follows are compounds tested on HSkMC (human skeletal muscle cells) (assay: cytotoxicity call (relative viability < 0.9)). Conditions: 10 µM.

| Compound | cytotoxicity call |
| --- | --- |
| C[C@@H]1CCCCO[C@@H](CN(C)C(=O)C2CCCCC2)[C@@H](C)CN([C@H](C)CO)C(=O)c2cc(NC(=O)NC3CCCCC3)ccc2O1 | inactive |
| CN(C)CC(=O)N[C@@H]1CC[C@H](CCNC(=O)C2CCC2)O[C@@H]1CO | inactive |
| O=C(CCCCC(=O)N/N=C/c1cc[n+]([O-])cc1)NO | inactive |
| CC1OC(OCC2OC(Oc3c(-c4ccc(O)c(O)c4)oc4cc(O)cc(O)c4c3=O)C(O)C(O)C2O)C(O)C(O)C1O (stereo not given) | inactive |
| Cc1noc(C)c1NC(=O)Nc1ccc2c(c1)C(=O)N([C@H](C)CO)C[C@H](C)[C@@H](CN(C)C(=O)Nc1ccc3c(c1)OCO3)OCCCC[C@H](C)O2 | inactive |
| N[C@@H](Cc1ccccc1F)C(=O)O | inactive |
| C[C@@H]1CN([C@H](C)CO)C(=O)c2cc(NC(=O)C3CCCCC3)ccc2O[C@@H](C)CCCCO[C@@H]1CN(C)C(=O)c1ccccc1 | inactive |
| O=C1[C@H](Cc2ccc(C(F)(F)F)cc2)CCn2cc(nn2)COC[C@@H]2CCCCN2C(=O)[C@H](Cc2ccc(C(F)(F)F)cc2)CCn2cc(nn2)COC[C@@H]2CCCCN12 | inactive |
| CCS(=O)(=O)N1CCc2ccc(N)cc2C1 | inactive |
| CNc1nc(SCC(N)=O)nc(N2CCOCC2)n1 | inactive |
| C[C@@H]1CN([C@@H](C)CO)C(=O)c2cc(NC(=O)Nc3ccc(C(F)(F)F)cc3)ccc2O[C@@H](C)CCCCO[C@@H]1CN(C)C | inactive |
| C[C@@H]1CCCCO[C@@H](CN(C)C(=O)Nc2cccc3ccccc23)[C@@H](C)CN([C@H](C)CO)C(=O)c2cc(NC(=O)Cc3ccccc3)ccc2O1 | inactive |
| CN1C(=N)NC(=O)/C1=C/c1cccnc1 | inactive |
| COC(=O)OC[C@H]1O[C@@H](Oc2cc(C)cc(O)c2C(=O)CCc2ccc3occc3c2)[C@H](O)[C@@H](O)[C@@H]1O | inactive |
| C[C@@H]1CN([C@H](C)CO)C(=O)c2cc(C#CC3(O)CCCC3)cnc2O[C@@H]1CN(C)C(=O)C1CCOCC1 | inactive |
| COc1ccc(S(=O)(=O)N2C[C@@H](O)COC[C@H]3O[C@H](CC(=O)NCCCN(C)C)CC[C@@H]32)cc1 | inactive |
| Cc1noc(C)c1NC(=O)N(C)C[C@@H]1OCCCC[C@H](C)Oc2ccc(NS(=O)(=O)c3ccc(Cl)cc3)cc2C(=O)N([C@H](C)CO)C[C@@H]1C | inactive |
| Cc1ccc(S(=O)(=O)Nc2ccc3c(c2)CC(=O)N([C@@H](C)CO)C[C@@H](C)[C@@H](CN(C)C(=O)Nc2cccc4ccccc24)O3)cc1 | inactive |
| C[C@H]1CN([C@@H](C)CO)C(=O)c2cc(NS(=O)(=O)c3ccc(F)cc3)ccc2O[C@H]1CN(C)CC1CC1 | inactive |
| COc1ccc2c3c([nH]c2c1)[C@H](CO)N(C[C@]13CCN(CC1)CC1CCOCC1)S(=O)(=O)c1cn(cn1)C | inactive |

| Compound | cytotoxicity call |
| --- | --- |
| COc1cc2ccnc(CCCN)c2cc1OC | inactive |
| c1ccc([C@@H]2CNCCN2)cc1 | inactive |
| C[C@@H]1CCCCO[C@@H](CN(C)C(=O)Nc2ccccc2)[C@H](C)CN([C@@H](C)CO)C(=O)c2cc(NC(=O)Nc3ccc4c(c3)OCO4)ccc2O1 | inactive |
| CC(C)NC(=O)Nc1ccc2c(c1)CC(=O)N([C@@H](C)CO)C[C@@H](C)[C@@H](CN(C)C(=O)NC1CCCCC1)O2 | inactive |
| C[C@@H]1CCCCO[C@H](CN(C)CC2CC2)[C@H](C)CN([C@@H](C)CO)C(=O)c2cc(NS(=O)(=O)c3ccc(Cl)cc3)ccc2O1 | inactive |
| C[C@@H]1CN([C@@H](C)CO)C(=O)c2c(c3ccccc3n2C)-c2ccccc2CO[C@H]1CN(C)C(=O)Nc1ccc2c(c1)OCO2 | inactive |
| C[C@@H]1CCCCO[C@@H](CN(C)C(=O)c2ccccc2)[C@@H](C)CN([C@H](C)CO)C(=O)c2cc(NC(=O)Nc3ccc(C(F)(F)F)cc3)ccc2O1 | inactive |
| NC(=O)NCC#Cc1ccc2c(c1)[C@]1(C(=O)N2)[C@H](C(=O)O)[C@H]2C(=O)O[C@H](c3ccccc3)[C@H](c3ccccc3)N2[C@@H]1c1ccc(OCCO)cc1 | inactive |
| CC(C)NC(=O)N(C)C[C@@H]1Oc2ccc(NC(=O)CCCN(C)C)cc2C(=O)N([C@@H](C)CO)C[C@H]1C | inactive |
| C[C@@H]1CCCCO[C@@H](CN(C)S(=O)(=O)c2ccccc2)[C@@H](C)CN([C@H](C)CO)C(=O)c2cc(NC(=O)Nc3ccccc3)ccc2O1 | inactive |
| C[C@H](CO)N1C[C@H](C)[C@H](CN(C)S(=O)(=O)c2ccccc2)Oc2ncc(Br)cc2C1=O | inactive |
| CN1CCN(C(=O)C[C@@H]2CC[C@@H](NC(=O)Cc3ccccn3)[C@H](CO)O2)CC1 | inactive |
| CC(C)N1C[C@@H](C)[C@H](CN(C)Cc2ccc(Oc3ccccc3)cc2)Oc2c(cccc2N(C)C(=O)c2ccncc2)C1=O | inactive |
| CC(C)(Sc1cc(C(C)(C)C)c(O)c(C(C)(C)C)c1)Sc1cc(C(C)(C)C)c(O)c(C(C)(C)C)c1 | inactive |
| C[C@@H]1CN([C@H](C)CO)C(=O)Cc2cc(NC(=O)CCC(F)(F)F)ccc2O[C@@H]1CN(C)C(=O)Nc1cccc2ccccc12 | inactive |
| O=C(C[C@@H]1C[C@@H]2c3cc(NC(=O)Cc4ccncc4)ccc3O[C@@H]2[C@@H](CO)O1)NCc1cccc(F)c1 | inactive |
| CC[C@H]1OC(=O)C[C@@H](O)[C@H](C)[C@@H](O[C@@H]2O[C@H](C)[C@@H](O[C@H]3C[C@@](C)(O)[C@@H](O)[C@H](C)O3)[C@H](N(C)C)[C@H]2O)[C@@H](CC=O)C[C@@H](C)C(=O)/C=C/C(C)=C/[C@@H]1CO[C@@H]1O[C@H](C)[C@@H](O)[C@@H](OC)[C@H]1OC | inactive |
| Oc1cc2c(cc1O)C1c3ccc(O)c(O)c3OCC1(O)C2 (stereo not given) | inactive |
| C[C@H](CO)N1C[C@H](C)[C@H](CN(C)Cc2ccc(C(=O)O)cc2)Oc2ccc(NS(=O)(=O)c3ccccc3)cc2CC1=O | inactive |
| CC(C)CC#Cc1cnc2c(c1)C(=O)N([C@@H](C)CO)C[C@@H](C)[C@H](CN(C)S(=O)(=O)c1cn(C)cn1)O2 | inactive |
